“And” between values parts separate entries of the source, which are not always exact repeats. Equal entries are not always repeated. Hit rate of the full screen: of about 340,000 compounds, about 12,000 (3.5%) were called active. This list was built around the results that the source calls inconclusive (neither active nor inactive); the mix of calls is not that of the screen. Calls come from the whole dose curve; as a rule, active = well fitted inhibition curve with a large enough effect; inconclusive = small, poorly fitted or top-dose-only effect, or another doubt; inactive = no such curve, though single readings can be large or run the other way. Where the call is inconclusive, the potency comes from a doubtful curve fit.
Assay: qHTS Assay for Inhibitors of Hepatitis C Virus (HCV)
Conditions: Huh7.5.1 HCVcc-Cre (HCVcc is cell-culture hepatitis C virus) infection, luciferase reporter, 44 h; activity change, negative = inhibition: at 41.8 µM (top of the series)
Method in brief: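 Cells (1,000/well) were plated 4 h before compound, then infected with HCVcc-Cre virus (~0.5 moi). After 44 h further culture, infection was read as luciferase luminescence following a 15 min substrate incubation at room temperature.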
% is set by controls: 0 for no effect and ±100 for the full control effect; potency is the fitted concentration of half-maximal effect; tags give direction and shape of the fitted curve.

Row | SMILES | Potency | activity change, negative = inhibition
1 | O=C(CC(c1ccccc1)c1ccccc1)Nc1ccc2c(c1)OCCO2 | inconclusive: 28.2 µM [inhibitor, single point] | 
2 | COc1cccc(Sc2cc(N3CCOCC3)nc(-c3ccccc3)n2)c1 | inconclusive: 20 µM [inhibitor, partial curve, poor fit] | 
3 | O=S(=O)(Nc1nc2ccccc2nc1N1CCN(c2ccccc2)CC1)c1ccc(F)cc1 |  | inactive: 5.16%
4 | COc1ccc(CCNC(=O)c2cccc(C(=O)NCCc3ccc(OC)cc3)n2)cc1 | inconclusive: 4.47 µM [inhibitor, single point] | 
5 | CCN1CCc2c(sc(NC(=O)c3ccc(S(=O)(=O)N4CCOCC4)cc3)c2C(=O)OC)C1 | inconclusive: 10 µM [inhibitor, partial curve] | 
6 | CCOC(=O)c1c(NC(=O)c2ccccc2C(=O)O)sc2c1CCCC2 | inconclusive: 12.6 µM [inhibitor, single point] | 
7 | COc1ccc(C(=O)NC2(C(F)(F)F)NC(=O)N(CCCc3ccccc3)C2=O)c(OC)c1OC (centres undefined) | inconclusive: 10 µM [inhibitor, partial curve] | 
8 | Cc1ccc(-c2noc(CSc3nnc(Cc4cccs4)n3-c3ccccc3)n2)cc1 | inconclusive: 25.1 µM [inhibitor, single point] | 
9 | CCOc1ccc2[nH]c(=O)c(CN(Cc3cccs3)C(CC)c3nnnn3C(C)(C)CC)cc2c1 (centres undefined) | active: 10 µM | 
10 | Cc1cc2c(=O)n(C)c(SCC(=O)c3cc4ccccc4o3)nc2s1 | inconclusive: 17.8 µM [inhibitor, partial curve] | 
11 | O=C(CN1C(=O)C(=O)N(C2CCCC2)C1=O)NCCc1ccc(Cl)cc1Cl |  | inactive: 12.1%
12 | COc1ccc(Oc2c(Cl)cnn(-c3ccccc3)c2=O)cc1 | inconclusive: 22.4 µM [inhibitor, single point] | 
13 | Cc1ccc(S(=O)(=O)N2C[C@@H]3CCCC[C@@H]3[C@@H](C)[C@H]2c2cn(Cc3ccccc3)c3ccccc23)cc1 | inconclusive: 3.16 µM [inhibitor, partial curve] | 
14 | COc1ccc(C(C)=O)cc1COc1ccc(Cl)cc1Cl |  | inconclusive: -78.3% [inhibitor]
15 | O=C(c1cc(-c2ccccc2)on1)N1CCN(C(=O)c2ccco2)CC1 |  | inactive: 16.6%
16 | CC(C)N(Cc1ccccc1)C(=O)CN1C(=O)COc2ccc(S(=O)(=O)N3CCCCCC3)cc21 | inconclusive: 31.6 µM [inhibitor, single point] | 
17 | Cc1ccccc1NC(=O)CSc1nc2c(c(=O)n(C)c(=O)n2C)n1C |  | inactive: 5.07%
18 | COc1ccc(CCN2CC(C(=O)NCCc3cnn(C)c3)CCC2=O)cc1 (centres undefined) |  | inactive: 29.6%
19 | N#Cc1c(/N=C/c2cccs2)sc2c1CCC2 | inconclusive: 6.31 µM [inhibitor, partial curve] | 
20 | CCSc1nc2sc3c(c2c(=O)n1-c1ccccc1)CCN(C)C3 | inconclusive: 4.47 µM [inhibitor, partial curve] | 
21 | O=C(Nc1ccccc1C(=O)Nc1ccccc1C(=O)O)c1ccccc1 |  | inactive: -28%
22 | O=C(/C=C/c1ccccc1)Nc1cccnc1Oc1ccccc1F | inconclusive: 35.5 µM [inhibitor, partial curve, poor fit] | 

Row | SMILES | Potency | activity change, negative = inhibition
23 | Cc1ccc(C(=O)N2CCCC(CCC(=O)N3CCN(c4ccccn4)CC3)C2)cc1 (centres undefined) | inconclusive: 14.1 µM [inhibitor, single point] | 
24 | Cc1onc(-c2ccccc2)c1C(=O)N1CCc2ccccc21 |  | inactive: -0.709%
25 | O=C(NC(=S)NCC1COc2ccccc2O1)c1ccccc1 (centres undefined) |  | inactive: -21.3%
26 | N#Cc1c2ccccc2nc2ccccc12 | inconclusive: 31.6 µM [inhibitor, single point] | 
27 | Cc1nc2cc(C(F)(F)F)ccc2n1C1CCN(Cc2nnnn2Cc2ccc3c(c2)OCO3)CC1 | inactive and inconclusive: 31.6 µM [inhibitor, single point] | 
28 | COc1ccc(-c2cc(C(=O)Nc3cccc(S(=O)(=O)NCc4ccco4)c3)c3ccccc3n2)cc1OC | inconclusive: 3.16 µM [inhibitor, partial curve] | 
29 | Cc1cc(Br)cc(C)c1OCC(=O)NNC(=O)c1cccs1 |  | inactive: -6.32%
30 | Cc1ccc(S(=O)(=O)NNC(=O)CCC(=O)Nc2ccc(C)c(C)c2)cc1 | inconclusive: 5.62 µM [inhibitor, single point] | 
31 | CCS(=O)(=O)c1nc(S(=O)(=O)c2ccc(Cl)cc2)c(NCc2ccco2)s1 |  | inactive: 2.47%
32 | COc1cccc(CNC(=O)CCC2CCCN(C(=O)c3ccccc3N(C)C)C2)c1 (centres undefined) | inconclusive: 31.6 µM [inhibitor, single point] | 
33 | CCN(CC)CCNC(=O)c1nn(-c2ccc(Cl)cc2)c2c1CCc1cc(OC)ccc1-2 | inconclusive: 8.91 µM [inhibitor, partial curve, poor fit] | 
34 | CCCS(=O)(=O)N1CCCC(C(=O)NCCCN2CCN(c3ccccc3F)CC2)C1 (centres undefined) | inconclusive: 31.6 µM [inhibitor, single point] | 
35 | COc1ccc(Nc2nc(-c3ccccc3)nc3ccccc23)cc1 | inconclusive: 1.58 µM [inhibitor, partial curve] | 
36 | CCN(CC)c1ccc(/C=C(/C#N)c2nc3ccccc3[nH]2)c(OC(C)C)c1 | active: 2 µM | 
37 | Cc1nc2ccccc2c(=O)n1/N=C/c1c(O)ccc2ccccc12 |  | inactive: -14.6%
38 | CCCNC(=O)C/C(C)=N/NC(=O)COc1ccc(C)cc1Br |  | inactive: 6.75%
39 | O=C(c1cc(F)ccc1F)C1CCCN(Cc2cccn2-c2ccccn2)C1 (centres undefined) |  | inactive: 5.98%
40 | Cc1[nH]c(=S)c(C#N)c(C)c1CCC#N | inconclusive: 5.01 µM [inhibitor, single point] | 
41 | N#Cc1nc(-c2ccc(OCc3ccc(Cl)cc3)cc2)oc1N1CCC(C(N)=O)CC1 | inconclusive: 1.78 µM [inhibitor, partial curve] | 
42 | CC(C)C(=O)N1CCN(c2ccc(NC(=O)COc3ccccc3[N+](=O)[O-])cc2)CC1 | inconclusive: 8.91 µM [inhibitor, partial curve] | 
43 | CC(=NNC(=O)c1ccncc1)c1ccc(O)cc1O | active: 11.2 µM | 
44 | CCCOc1ccc(OCC(=O)c2[nH]c(C)c(C(C)=O)c2C)cc1 | inconclusive: 31.6 µM [inhibitor, single point] | 

Source: PubChem BioAssay AID651820 (National Center for Advancing Translational Sciences (NCATS), 2012)
